± gives the standard deviation of the averaged measurements. Over roughly 33,000 sequences, “E-score (dimensionless, -0.5 to 0.5)” has its median near -0.049; the highest 2% begin near 0.37. The list shows a part of the results.
These sequences were tested on T1, PmTbr T-box DNA-binding domain (GST fusion) (assay: PBM E-score of 8-mer (E-score (dimensionless, -0.5 to 0.5)); Tbr is Tbrain of the sea star Patiria miniata (Pm) or the sea urchin Strongylocentrotus purpuratus (Sp); higher = stronger binding preference; most listed sequences are background and not binding sites). Details: the construct has about 5 more residues each side.
T1 sequence: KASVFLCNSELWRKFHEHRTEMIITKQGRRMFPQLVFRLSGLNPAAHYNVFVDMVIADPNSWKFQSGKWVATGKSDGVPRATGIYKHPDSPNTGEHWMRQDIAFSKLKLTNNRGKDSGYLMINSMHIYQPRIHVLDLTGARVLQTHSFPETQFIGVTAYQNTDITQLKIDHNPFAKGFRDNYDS
Summary of the method: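 GST-fused Tbr T-box DNA-binding domains (the whole T-box plus about five flanking residues) were expressed in BL21 E. coli at 20 °C and purified by glutathione affinity chromatography. Universal Agilent oligonucleotide arrays were made double-stranded by primer extension, incubated with 200 nM protein in PBS (pH 7.5), then scanned and quantified. Every ungapped 8-mer was scored from probe intensities. The Universal PBM Analysis Suite gave each word an enrichment E-score, averaged over duplicate arrays.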

Row | Sequence | PBM E-score of 8-mer
1 | AGCTCCAA | -0.174 ± 0.0019
2 | GGCCTCGA | -0.258 ± 0.11
3 | CCTGGCAA | 0.0402 ± 0.0016
4 | GTCACTAA | 0.2958 ± 0.00092
5 | ATTACCGC | -0.067 ± 0.032
6 | TCAAGGGA | -0.159 ± 0.15
7 | AGGCGCGA | 0.463 ± 0.0056
8 | GCTTCCCC | -0.155 ± 0.054
9 | ATCAACCC | -0.12 ± 0.079
10 | AAGGGTGC | 0.301 ± 0.047
11 | TAGTCTCA | 0.093 ± 0.063
12 | ACCCCACA | 0.265 ± 0.016
13 | CATTTCCG | -0.0507 ± 0.037
14 | ACCCAGAG | -0.0469 ± 0.037
15 | CTACGACA | 0.0921 ± 0.12
16 | CCCGCCAG | 0.117 ± 0.083
17 | CAAAAAGA | -0.206 ± 0.063
18 | CGTTAGGC | 0.0768 ± 0.046
19 | AACCTACT | -0.221 ± 0.044
20 | CTCGGAGC | -0.113 ± 0.037
21 | AATAAGCG | 0.152 ± 0.028
22 | CCCGTAGC | 0.0376 ± 0.019
23 | CTACACAC | 0.129 ± 0.041
24 | AATTCACA | 0.2798 ± 0.0014
25 | CAACGTTA | 0.0492 ± 0.009

Row | Sequence | PBM E-score of 8-mer
26 | GACGGGGC | -0.174 ± 0.08
27 | CGAAGTGC | 0.253 ± 0.02
28 | GTATTCCA | -0.108 ± 0.051
29 | TTACTAAA | -0.175 ± 0.043
30 | CCTAGGCG | 0.0867 ± 0.043
31 | GTCAGAAA | 0.00026 ± 0.08
32 | ACACAACC | 0.142 ± 0.038
33 | CATGATTC | -0.188 ± 0.014
34 | GGCAAGTA | 0.0544 ± 0.096
35 | AATAAAAC | 0.0319 ± 0.12
36 | ATAATGGA | -0.0613 ± 0.033
37 | CGTGCAGC | 0.0118 ± 0.029
38 | ACCCATTC | -0.0983 ± 0.0046
39 | GGGGGCCA | -0.0934 ± 0.068
40 | ATTACTAA | -0.195 ± 0.053
41 | ACATGCTG | 0.011 ± 0.053
42 | ATACTATG | -0.17 ± 0.068
43 | CCTTAACG | 0.00703 ± 0.089
44 | CACCACCA | 0.201 ± 0.034
45 | AAATGCGG | -0.0504 ± 0.077
46 | GTTTGAAA | -0.148 ± 0.037
47 | ACAATGTG | 0.297 ± 0.0039
48 | GCCACATA | 0.175 ± 0.04
49 | CGCTTACC | 0.0245 ± 0.057
50 | ACATGCGT | 0.0464 ± 0.05

Row | Sequence | PBM E-score of 8-mer
51 | CGACGGAC | 0.0197 ± 0.024
52 | CCATTGGA | -0.0722 ± 0.069
53 | GATGTGTA | 0.289 ± 0.02
54 | CATTTCGC | 0.207 ± 0.041
55 | ATCAAGCG | 0.0692 ± 0.061
56 | CTTTGCGC | 0.169 ± 0.0022
57 | AAAATGAA | -0.0303 ± 0.11
58 | GCGCATTA | -0.196 ± 0.0095
59 | AGATCTTA | -0.171 ± 0.089
60 | GTTACTCA | -0.0389 ± 0.019
61 | CTTGCGCA | 0.135 ± 0.026
62 | CGTGATGC | 0.0694 ± 0.034
63 | CGGGATGC | -0.249 ± 0.11
64 | CCGACGGC | -0.102 ± 0.024
65 | CGTGTCAA | 0.4335 ± 0.00096
66 | CAGTCCCG | -0.0959 ± 0.0045
67 | GCGATTAA | 0.152 ± 0.012
68 | AGTAGCTG | -0.0721 ± 0.044
69 | AACTATAT | -0.0551 ± 0.028
70 | GAGGCGTA | 0.102 ± 0.02
71 | CGTGCTAG | 0.287 ± 0.027
72 | ATCATCTG | -0.122 ± 0.038
73 | AAGATTTC | 0.0187 ± 0.071
74 | ACCATTTG | -0.0848 ± 0.00096
75 | TCAGACCA | -0.135 ± 0.036

Row | Sequence | PBM E-score of 8-mer
76 | AGCTTGAA | -0.15 ± 0.03
77 | GAACTAAA | -0.164 ± 0.022
78 | CCTTATGA | 0.217 ± 0.028
79 | CCTTTCAG | -0.111 ± 0.061
80 | GGAGCGCA | -0.109 ± 0.017
81 | CAAGTTAC | 0.0103 ± 0.025
82 | ATTTTACC | -0.176 ± 0.075
83 | CGCTTCCA | 0.0715 ± 0.03
84 | GTTTGGAA | -0.141 ± 0.026
85 | ATAGGCGG | -0.0787 ± 0.0033
86 | GGACAGAC | -0.068 ± 0.043
87 | CGCGACAC | 0.375 ± 0.02
88 | AGTGCGTA | 0.146 ± 0.048
89 | GAAGGATC | -0.0766 ± 0.026
90 | ACCACGTA | 0.00427 ± 0.056
91 | CGAGGAAG | -0.107 ± 0.092
92 | CGTGAGCA | 0.0168 ± 0.032
93 | CAATACCG | -0.277 ± 0.1
94 | ACTTCTCA | 0.176 ± 0.003
95 | GACAGTGC | 0.111 ± 0.044
96 | ATTATTTC | 0.117 ± 0.032
97 | AGGCCGTG | 0.0805 ± 0.0058
98 | AAGTAATT | -0.163 ± 0.092
99 | CACAACGC | 0.112 ± 0.0016
100 | CCTCCCAG | 0.0865 ± 0.021

Row | Sequence | PBM E-score of 8-mer
101 | GAATGCGA | 0.0797 ± 0.0074
102 | AGTAGCTA | 0.0372 ± 0.007
103 | CTATCCAG | -0.215 ± 0.0065
104 | GTTTCGGA | -0.152 ± 0.0021
105 | GGTAGCAC | 0.327 ± 0.013
106 | AGCATACA | 0.0856 ± 0.029
107 | CTCAAGCC | -0.0914 ± 0.048
108 | CGGTGGAG | -0.127 ± 0.0071
109 | GAGAGAGC | 0.00499 ± 0.031
110 | CGGCCGAA | -0.153 ± 0.0055
111 | AGCCTTAT | 0.0216 ± 0.083
112 | GGGATCAA | -0.161 ± 0.024
113 | GACGGACA | 0.0362 ± 0.0049
114 | ATTGTCTC | -0.0898 ± 0.011
115 | CGCCATGA | 0.0544 ± 0.021
116 | TACTGTAA | -0.115 ± 0.024
117 | TGAAACCA | -0.0657 ± 0.047
118 | CAACTCGA | 0.0441 ± 0.09
119 | AGTAGGCG | 0.0665 ± 0.043
120 | CTATAGTA | -0.246 ± 0.039
121 | ACGACTGA | -0.196 ± 0.0029
122 | ATTTCAAA | -0.205 ± 0.028
123 | GGTGGGAA | 0.339 ± 0.038
124 | CCTCCGCC | 0.00324 ± 0.031
125 | CACGCGCA | 0.075 ± 0.061

Row | Sequence | PBM E-score of 8-mer
126 | AATAGCTG | 0.0454 ± 0.085
127 | CGAGATGC | 0.0132 ± 0.073
128 | ATCCTTGA | -0.247 ± 0.034
129 | AATTTCCG | -0.246 ± 0.06
130 | ATATCAGG | -0.106 ± 0.053
131 | GGGACCCA | -0.119 ± 0.098
132 | ACCCTCAA | 0.0906 ± 0.052
133 | AGACGTGA | 0.233 ± 0.043
134 | AACTGAGC | -0.298 ± 0.092
135 | CCGATAGG | 0.00046 ± 0.056
136 | CGTCATGC | -0.0192 ± 0.0039
137 | ATCAATGG | -0.112 ± 0.042
138 | AGACATGG | -0.316 ± 0.022
139 | GTTTGTGA | 0.033 ± 0.03
140 | AGGAGAAT | -0.218 ± 0.014
141 | AGTTGATC | -0.041 ± 0.049
142 | ACTGCCAA | 0.0668 ± 0.0018
143 | AGAATATC | -0.102 ± 0.0082
144 | ACGAACGA | -0.0282 ± 0.085
145 | AAGGTCTC | -0.157 ± 0.02
146 | TTCGCAAA | 0.175 ± 0.027
147 | AACCCCTG | -0.0695 ± 0.0011
148 | GCAACGAA | -0.0712 ± 0.091
149 | ATCTAAAC | -0.0413 ± 0.056
150 | AATTGATG | -0.146 ± 0.18

Row | Sequence | PBM E-score of 8-mer
151 | ATGACGTC | -0.0322 ± 0.024
152 | AACAGGTT | 0.238 ± 0.023
153 | AGTTCATG | 0.0943 ± 0.0081
154 | CAATCAGC | 0.0229 ± 0.0086
155 | CATGCGCC | -0.167 ± 0.023
156 | CCCAGCGC | -0.0201 ± 0.0062
157 | AATTGCAA | 0.0376 ± 0.09
158 | ACCGACTG | -0.101 ± 0.099
159 | AACAAAAC | 0.0319 ± 0.0046
160 | ATAACAGA | -0.043 ± 0.07
161 | CAGTAGGA | -0.0351 ± 0.022
162 | AGGGTTGA | -0.0645 ± 0.051
163 | AAATCCTT | -0.0952 ± 0.035
164 | CACCGGTC | -0.201 ± 0.031
165 | TACCGGCA | -0.219 ± 0.006
166 | CTCGAATC | -0.0157 ± 0.0079
167 | CCCGGGCA | -0.0324 ± 0.079
168 | AGACCGGG | -0.218 ± 0.0096
169 | ACGCAAGG | 0.166 ± 0.0072
170 | AGCGCTAG | 0.245 ± 0.0052
171 | CTACCTCA | -0.0934 ± 0.036
172 | CATGTCCG | -0.136 ± 0.059

Reference: the supplement of paper PMC4166925
